Publication PMC5892938
The list shows a part of the results. At the low end of the ranking the order means little.

These sequences were tested against GST-SBP-SLBP (stem-loop binding protein) (UniProt Q14493) (assay: targeted RNA Bind-n-Seq). Settings: RBNS binding buffer: 25 mM Tris pH 7.5, 150 mM KCl, 3 mM MgCl2, 0.1% Tween, 0.5 mg/mL BSA, 1 mM DTT; 27 nM protein, 750 pM RNA pool; temperature not stated; high values mean tight binding.
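Also: DESeq read counts versus GST-SBP nonspecific binding control pulldown.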

“GGUCACGUCUCAAUCAACUCAUUUCCCAGGGAAAACCCUGGUUAUCUCAACAGCUCGCAGUCAAG” was tested. Which binding signal (log2 fold change) did it give?
Its binding signal (log2 fold change) is 0.162.

Which binding signal (log2 fold change) does the source give for “GGUCACGUCUCAAUCAACUCUUCUCCCAGGGAAAUCCCUGGUUUAUUCAACAGCUCGCAGUCAAG” here?
Its binding signal (log2 fold change) is -0.243.

“GGUCACGUCUCAAUCAACUCAAUUUCAGGAGUUUCCUCCUGCAAACUCAACAGCUCGCAGUCAAG” was tested. Which binding signal (log2 fold change) did it give?
Its binding signal (log2 fold change) is 0.00572.

With “GGUCACGUCUCAAUCAACUCAACUUCAGGAGUUUCCUCCUGCAAUGUCAACAGCUCGCAGUCAAG” as the sequence, how does the binding signal (log2 fold change) read?
Its binding signal (log2 fold change) is -0.134.

With “GGUCACGUCUCAAUCAACUCUAACGAGGGGGGGAAAACCCCUUUACCCUCAAACUCAACAGCUCGCAGUCAAG” as the sequence, how does the binding signal (log2 fold change) read?
Its binding signal (log2 fold change) is 0.21.

Which binding signal (log2 fold change) does the source give for “GGUCACGUCUCAAUCAACUCCAACGAGGGGGGGAAAACCCCUUUACCCUCAUACUCAACAGCUCGCAGUCAAG” here?
The binding signal (log2 fold change) was 0.165.

With “GGUCACGUCUCAAUCAACUCUAAAGAGGGGGGGAAAACCCCUUUACCCUCCCAAUCAACAGCUCGCAGUCAAG” as the sequence, how does the binding signal (log2 fold change) read?
The binding signal (log2 fold change) was 0.0917.

For “GGUCACGUCUCAAUCAACUCAGUCCCAGGAGUUUUCUCCUGUUAAUUCAACAGCUCGCAGUCAAG”, which binding signal (log2 fold change) is on record?
Its binding signal (log2 fold change) is -0.125.

How did the binding signal (log2 fold change) turn out when “GGUCACGUCUCAAUCAACUCAAUGGCAGGAGUUUACUCCUGGAAAUUCAACAGCUCGCAGUCAAG” was run?
The binding signal (log2 fold change) was 0.0622.

“GGUCACGUCUCAAUCAACUCAUCGUCCAGGGAAAACCCUGGCUAUUUCAACAGCUCGCAGUCAAG” was tested. Which binding signal (log2 fold change) did it give?
Its binding signal (log2 fold change) is 0.19.

How did the binding signal (log2 fold change) turn out when “GGUCACGUCUCAAUCAACUCAUUAGAGGGGGGGAAAACCCCUUUACCCUCCACUUCAACAGCUCGCAGUCAAG” was run?
The binding signal (log2 fold change) was -0.252.

For “GGUCACGUCUCAAUCAACUCAAUCGAGGGGGGGAAAACCCCUUUACCCUCAUUCUCAACAGCUCGCAGUCAAG”, which binding signal (log2 fold change) is on record?
Its binding signal (log2 fold change) is -0.0701.

How did the binding signal (log2 fold change) turn out when “GGUCACGUCUCAAUCAACUCUUAAGAGGGGGGGAAAACCCCUUUACCCUCAUCCUCAACAGCUCGCAGUCAAG” was run?
Its binding signal (log2 fold change) is -0.216.

How did the binding signal (log2 fold change) turn out when “GGUCACGUCUCAAUCAACUCUUCGUCAGGAGUUUUCUCCUGUUUUUUCAACAGCUCGCAGUCAAG” was run?
Its binding signal (log2 fold change) is -0.13.

“GGUCACGUCUCAAUCAACUCUAUCUCAGGAGUUUUCUCCUGCUUAUUCAACAGCUCGCAGUCAAG” was tested. Which binding signal (log2 fold change) did it give?
Its binding signal (log2 fold change) is 0.0835.

With “GGUCACGUCUCAAUCAACUCAACUUCAGGAGUUUUCUCCUGCUAACUCAACAGCUCGCAGUCAAG” as the sequence, how does the binding signal (log2 fold change) read?
Its binding signal (log2 fold change) is 0.0627.

With “GGUCACGUCUCAAUCAACUCAAUUUCCAGGGAAAUCCCUGGCAUUCUCAACAGCUCGCAGUCAAG” as the sequence, how does the binding signal (log2 fold change) read?
Its binding signal (log2 fold change) is 0.19.

“GGUCACGUCUCAAUCAACUCAAUUUCCAGGGAAAUCCCUGGCGUUUUCAACAGCUCGCAGUCAAG” was tested. Which binding signal (log2 fold change) did it give?
The binding signal (log2 fold change) was -0.0558.

“GGUCACGUCUCAAUCAACUCAAUCUCCAGGGAAAUCCCUGGCUAACUCAACAGCUCGCAGUCAAG” was tested. Which binding signal (log2 fold change) did it give?
The binding signal (log2 fold change) was 0.242.

How did the binding signal (log2 fold change) turn out when “GGUCACGUCUCAAUCAACUCCUCAGAGGGGGGGAAAACCCCUUUACCCUCGUCCUCAACAGCUCGCAGUCAAG” was run?
The binding signal (log2 fold change) was 0.382.

With “GGUCACGUCUCAAUCAACUCUUUCCCCAGGGAAACCCCUGGCAUUUUCAACAGCUCGCAGUCAAG” as the sequence, how does the binding signal (log2 fold change) read?
The binding signal (log2 fold change) was -0.0793.

For “GGUCACGUCUCAAUCAACUCUAAAGAGGGGGGGAAAACCCCUUUGCCCUCAACAUCAACAGCUCGCAGUCAAG”, which binding signal (log2 fold change) is on record?
Its binding signal (log2 fold change) is -0.0585.

For “GGUCACGUCUCAAUCAACUCUUCCCCCAGGGAAAACCCUGGUAAACUCAACAGCUCGCAGUCAAG”, which binding signal (log2 fold change) is on record?
The binding signal (log2 fold change) was 0.177.

Which binding signal (log2 fold change) does the source give for “GGUCACGUCUCAAUCAACUCAUUCCCCAGGGAAACCCCUGGUAAUUUCAACAGCUCGCAGUCAAG” here?
The binding signal (log2 fold change) was -0.244.

Which binding signal (log2 fold change) does the source give for “GGUCACGUCUCAAUCAACUCUAUCCCCAGGGAAAGCCCUGGCAAUUUCAACAGCUCGCAGUCAAG” here?
The binding signal (log2 fold change) was 0.261.

How did the binding signal (log2 fold change) turn out when “GGUCACGUCUCAAUCAACUCCCUGGAGGGGGGGAAAACCCCUUUACCCUCAAUAUCAACAGCUCGCAGUCAAG” was run?
The binding signal (log2 fold change) was 0.169.

For “GGUCACGUCUCAAUCAACUCCUCAGAGGGGGGGAAAACCCCUUUACCCUCAAACUCAACAGCUCGCAGUCAAG”, which binding signal (log2 fold change) is on record?
The binding signal (log2 fold change) was -0.277.

For “GGUCACGUCUCAAUCAACUCUUCGUCCAGGGAAAACCCUGGUAUUUUCAACAGCUCGCAGUCAAG”, which binding signal (log2 fold change) is on record?
Its binding signal (log2 fold change) is -0.147.

With “GGUCACGUCUCAAUCAACUCAUUCUCAGGAGUUUUCUCCUGUAUUCUCAACAGCUCGCAGUCAAG” as the sequence, how does the binding signal (log2 fold change) read?
Its binding signal (log2 fold change) is -0.0497.

With “GGUCACGUCUCAAUCAACUCAUCCUCAGGAGUUUCCUCCUGUAAAGUCAACAGCUCGCAGUCAAG” as the sequence, how does the binding signal (log2 fold change) read?
Its binding signal (log2 fold change) is 0.042.

For “GGUCACGUCUCAAUCAACUCAUAAGAGGGGGGGAAAACCCCUUUACCCUCAUCAUCAACAGCUCGCAGUCAAG”, which binding signal (log2 fold change) is on record?
Its binding signal (log2 fold change) is -0.306.

With “GGUCACGUCUCAAUCAACUCAUCCUCCAGGGAAAACCCUGGCUAAUUCAACAGCUCGCAGUCAAG” as the sequence, how does the binding signal (log2 fold change) read?
Its binding signal (log2 fold change) is 0.176.

“GGUCACGUCUCAAUCAACUCUUUAGAGGGGGGGAAAACCCCUUUACCCUCCACUUCAACAGCUCGCAGUCAAG” was tested. Which binding signal (log2 fold change) did it give?
Its binding signal (log2 fold change) is -0.733.

With “GGUCACGUCUCAAUCAACUCAUCUUCAGGAGUUUUCUCCUGUUUUUUCAACAGCUCGCAGUCAAG” as the sequence, how does the binding signal (log2 fold change) read?
Its binding signal (log2 fold change) is -0.187.

Which binding signal (log2 fold change) does the source give for “GGUCACGUCUCAAUCAACUCAGUCCCCAGGGAAAUCCCUGGCAUAUUCAACAGCUCGCAGUCAAG” here?
Its binding signal (log2 fold change) is -0.0274.

Which binding signal (log2 fold change) does the source give for “GGUCACGUCUCAAUCAACUCAUUCUCAGGAGUUUUCUCCUGCUAUUUCAACAGCUCGCAGUCAAG” here?
The binding signal (log2 fold change) was 0.0836.
